Test results reported in PMC4336329 (PLoS ONE, 2015).
The campaign covered roughly 310,000 compounds. About 14,000 (4.5%) showed an effect of 50% or more. Effects have a minus sign here. This is one part of the list.

Molecular target: human ether-à-go-go-related gene (hERG) potassium channel (human, UniProt Q12809)
Test: primary screen, population patch clamp on CHO cells stably expressing hERG
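Note: peak tail current of the secondary pulse compared with the same well before compound.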

Chain of human ether-à-go-go-related gene (hERG) potassium channel (Q12809 whole entry, looked up): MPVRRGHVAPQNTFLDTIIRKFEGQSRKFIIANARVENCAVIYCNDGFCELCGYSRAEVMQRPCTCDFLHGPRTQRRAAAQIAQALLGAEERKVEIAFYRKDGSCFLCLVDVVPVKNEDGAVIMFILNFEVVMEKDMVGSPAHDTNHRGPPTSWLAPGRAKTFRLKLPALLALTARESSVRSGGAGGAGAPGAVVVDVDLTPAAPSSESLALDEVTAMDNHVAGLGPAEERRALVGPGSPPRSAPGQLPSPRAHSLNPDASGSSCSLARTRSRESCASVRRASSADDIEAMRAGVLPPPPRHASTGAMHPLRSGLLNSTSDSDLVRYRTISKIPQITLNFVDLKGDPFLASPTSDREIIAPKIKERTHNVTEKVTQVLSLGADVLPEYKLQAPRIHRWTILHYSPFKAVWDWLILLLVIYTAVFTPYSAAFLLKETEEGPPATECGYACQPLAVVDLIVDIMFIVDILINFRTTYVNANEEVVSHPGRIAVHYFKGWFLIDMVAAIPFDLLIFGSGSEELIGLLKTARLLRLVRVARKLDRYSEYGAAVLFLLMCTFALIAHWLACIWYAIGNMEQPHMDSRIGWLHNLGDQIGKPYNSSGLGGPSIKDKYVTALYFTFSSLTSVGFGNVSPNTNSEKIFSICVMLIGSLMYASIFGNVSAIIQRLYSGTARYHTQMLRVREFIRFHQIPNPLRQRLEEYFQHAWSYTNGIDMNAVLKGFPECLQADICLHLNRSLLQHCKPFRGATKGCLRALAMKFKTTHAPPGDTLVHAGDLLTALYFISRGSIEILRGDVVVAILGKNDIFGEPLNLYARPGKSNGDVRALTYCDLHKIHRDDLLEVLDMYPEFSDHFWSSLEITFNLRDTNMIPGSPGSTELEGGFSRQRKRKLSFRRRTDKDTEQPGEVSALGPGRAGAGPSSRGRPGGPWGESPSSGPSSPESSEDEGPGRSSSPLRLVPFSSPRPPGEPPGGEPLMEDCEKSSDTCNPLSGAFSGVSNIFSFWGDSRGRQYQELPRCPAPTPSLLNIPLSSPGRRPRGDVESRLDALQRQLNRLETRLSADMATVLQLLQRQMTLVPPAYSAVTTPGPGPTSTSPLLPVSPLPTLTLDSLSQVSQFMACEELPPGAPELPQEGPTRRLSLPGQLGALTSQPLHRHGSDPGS

Structure (SMILES) | hERG current change (%, negative = inhibition) at 10uM [%]
CCN1CCC2(CCN(Cc3cn[nH]c3-c3ccc(OC)c(F)c3)C2)C1 (centres unmarked) | 15.9
CC(=O)N1c2ccc(S(=O)(=O)N3CCC(C(=O)N4CCN(c5ccc(Cl)cc5)CC4)CC3)cc2CC1C (centres unmarked) | -22.5
COc1ccc(-c2cc(C(F)(F)F)n3nc(N)nc3n2)cc1 | -2.8
O=C(CC1Sc2ccccc2NC1=O)Nc1cccc(-c2nnc3n2CCCCC3)c1 (centres unmarked) | 0.432
COC(=O)c1ccc(C2/C(=C(\O)c3ccc(OC)c(C)c3)C(=O)C(=O)N2c2cc(C)on2)cc1 (centres unmarked) | -1.13
CC(C)c1cc(N2CCC(=O)NC2=O)cc(C(=O)O)c1O | 34.1
CC(C)(C)OC(=O)N1CCC(C(=O)Nc2ccc3c(c2)CCC3)CC1 | -29.1
CCOC(=O)c1c(NC(=S)Nc2ccccc2)sc2c1CCN(C)C2 | -74.2
COc1ccc(NC(=S)NCc2cccs2)c(OC)c1 | 2.35
CCCCOC(=O)Cn1c(=N)n(CCN2CCOCC2)c2ccccc21.Cl | -36.3
CN(C)[C@@H]1C(=O)C(C(N)=O)=C(O)[C@@]2(O)C(=O)C3=C(O)c4c(O)cccc4[C@@](C)(O)C3[C@H](O)C12.Cl (some centres unmarked) | -1.22
C/C=C/C(=O)OCC(=O)Nc1ccc(F)cc1Cl | -0.779
Cc1cc(=O)oc2cc(NC(=O)c3ccccc3Cl)ccc12 | 28
Cc1cc2c(OCC(O)CNCc3ccco3)cccc2[nH]1 (centres unmarked) | 19.5
Cc1nn(CCOc2ccccc2)c(=O)n1-c1c(F)cccc1F | -7.44
CCOC(=O)c1cc(-c2ccc(F)cc2)n(CC(=O)NC(C)CC)c1C (centres unmarked) | 12.3
Cc1ccc(C(=O)C(C)OC(=O)c2n[nH]c(=O)c3ccccc23)cc1 (centres unmarked) | -9.64
Cl.OCCNc1nc(N2CCN(c3ccccc3)CC2)nc2ccccc12 | -74.6
CCn1c(CC(=O)Nc2ccccc2F)nnc1SCC(=O)N1CCOCC1 | 10.6
Clc1cccc(N/N=C/c2ccncc2)c1 | -10.2

Structure (SMILES) | hERG current change (%, negative = inhibition) at 10uM [%]
COc1cccc(CN2CCN(C(=O)CC(C)C)CC2)c1 | -13.1
CCN(CC(=O)Nc1c(F)cccc1F)C(=O)c1ccc2c(c1)OCO2 | 2.6
COc1cc2c(cc1NC(=O)c1cccnc1)CCCC2 | 14.2
Cc1cc(Nc2c(C#N)c(N)nn2C)ccc1F | 6.99
N#CCCn1cc(CNC2CCC(O)CC2)c2ccccc21 (centres unmarked) | 5.19
BrCC(Br)C1CCC(Br)C(Br)C1 (centres unmarked) | 20.6
COC(=O)c1sccc1NC(=O)c1ccccc1Br | -4.82
Cc1ccc(-c2[nH]ncc2C(=O)c2ccc(Br)cc2)c(O)c1 | -9.43
COc1ccc(-n2c(SCC(=O)C(C)(C)C)nc3ccsc3c2=O)cc1 | 6.67
O=C(/C=C/c1ccc(Cl)c([N+](=O)[O-])c1)Nc1cccnc1 | -17.3
CNCC(=O)N1CCN(c2ncc(C(F)(F)F)cc2Cl)CC1.Cl | -22.3
CCCCC(=O)N(Cc1nc2sc(C)c(C)c2c(=O)[nH]1)C1CCCC1 | -13.5
O=C(Nc1ccc(S(=O)(=O)N2CCCC2)cc1)c1ccc(Br)o1 | 14.8
Cc1ccc(CNC(=O)C2CCCCC2C(=O)O)cc1 (centres unmarked) | 0.0308
COc1ccc(CC(=O)Nc2ccc(S(=O)(=O)N3CCOCC3)cc2)cc1 | -33.5
CCCNS(=O)(=O)c1ccc(CCC(=O)N2CCCC2)cc1 | 10.9
CCOc1ccc(NC(=O)c2cc(S(=O)(=O)N3CCCCC3)c[nH]2)cc1 | 21
CCc1ccc(OC(C)C(=O)Nc2ccc(S(=O)(=O)Nc3nccs3)cc2)cc1 (centres unmarked) | 17.7
COc1ccc(/C(N)=N/OC(=O)C2CCCCC2)cc1 | 18.7
O=C(O)C1C2C=CC(C2)C1C(=O)N1CCc2ccccc21 (centres unmarked) | 3.23

Structure (SMILES) | hERG current change (%, negative = inhibition) at 10uM [%]
CN1CCN(c2nc(-c3ccc(Br)cc3)nnc2-c2ccccc2)CC1 | -63.5
COc1ccc(/C=C2/N=C3CCCCCN3C2=O)cc1OC | 12
O=c1[nH]c(=S)[nH]nc1Cc1ccccc1 | 19.3
CSc1ccc(/C=N/N2CCN(Cc3ccc(C)cc3C)CC2)cc1 | 12.8
COc1ccc(OC)c(NC(=O)CCN2CCN(c3ccccc3)CC2)c1 | -32.1
CC1=C(C(=O)OC(C)C)C(c2c[nH]c3ccccc23)n2ncnc2N1 (centres unmarked) | -0.57
CC(Oc1ccc(Cl)cc1Cl)c1nc(-c2ccc(NC(=O)c3ccco3)cc2)no1 (centres unmarked) | 26.3
C=CCn1c(SCC(=O)Nc2ccc(OC)cc2)nc2c([nH]c3ccccc32)c1=O | 11.8
Cc1cccc2c1-c1sc(C(=O)N3CCc4ccccc4C3)cc1CO2 | -2.75
COC(=O)c1sccc1NC(=O)c1c(-c2ccccc2)noc1C | -26.5
O=C(Nc1ncn[nH]1)c1cc([N+](=O)[O-])ccc1Cl | 18.9
COc1cc(SC)ccc1C(=O)NCCc1c[nH]c2ccccc12 | 2.74
Cc1ccccc1N(CC(=O)NC1CCCC1)C(=O)c1oc(C(C)(C)C)cc1C | 6.63
NNc1ncnc2sc3c(c12)CCC3 | 18.5
COc1ccc(C(CC(=O)c2ccc(C)cc2)C(C#N)C#N)cc1OC (centres unmarked) | -1.33
O=C(NCC1CCCO1)C1CC(=O)N(C2CCCC2)C1 (centres unmarked) | 9.77
CC(=O)NC1CC2CCC(C1)N2 (centres unmarked) | -10.4
O=C(c1ccccc1SCc1ccccc1)N1CCOCC1 | 12.3
CCOC(=O)N1CCN(Cc2cn[nH]c2-c2cc3ccccc3o2)CC1 | -34.4
